# According to PubChem BioAssay AID504339 (National Center for Advancing Translational Sciences (NCATS), 2011):
# About 17,000 (4.4%) of roughly 390,000 compounds were called active. The inconclusive results got no clear call from the source; some entries with a clear call stand among them for comparison. Calls come from the whole dose curve; as a rule, active = well fitted inhibition curve with a large enough effect; inconclusive = small, poorly fitted or top-dose-only effect; inactive = no such curve, though single readings can be large or run the other way. A potency beside an inconclusive call is a rough fit, not a confirmed value.
# Target: Lysine-specific demethylase 4A (Homo sapiens) (UniProt O75164)
# Experiment: qHTS Assay for Inhibitors of JMJD2A-Tudor Domain; note: nearly all actives have a fitted effect of over 50% in size
# Conditions: AlphaScreen JMJD2A-Tudor / H3K4me3 peptide binding; activity change, negative = inhibition: at 114 µM (top of the series)
# % is set by controls: 0 for no effect and ±100 for the full control effect; potency is the fitted concentration of half-maximal effect; tags give direction and shape of the fitted curve.
# Sequence of UniProt O75164 (O75164 whole entry, looked up, the tested form may be a part): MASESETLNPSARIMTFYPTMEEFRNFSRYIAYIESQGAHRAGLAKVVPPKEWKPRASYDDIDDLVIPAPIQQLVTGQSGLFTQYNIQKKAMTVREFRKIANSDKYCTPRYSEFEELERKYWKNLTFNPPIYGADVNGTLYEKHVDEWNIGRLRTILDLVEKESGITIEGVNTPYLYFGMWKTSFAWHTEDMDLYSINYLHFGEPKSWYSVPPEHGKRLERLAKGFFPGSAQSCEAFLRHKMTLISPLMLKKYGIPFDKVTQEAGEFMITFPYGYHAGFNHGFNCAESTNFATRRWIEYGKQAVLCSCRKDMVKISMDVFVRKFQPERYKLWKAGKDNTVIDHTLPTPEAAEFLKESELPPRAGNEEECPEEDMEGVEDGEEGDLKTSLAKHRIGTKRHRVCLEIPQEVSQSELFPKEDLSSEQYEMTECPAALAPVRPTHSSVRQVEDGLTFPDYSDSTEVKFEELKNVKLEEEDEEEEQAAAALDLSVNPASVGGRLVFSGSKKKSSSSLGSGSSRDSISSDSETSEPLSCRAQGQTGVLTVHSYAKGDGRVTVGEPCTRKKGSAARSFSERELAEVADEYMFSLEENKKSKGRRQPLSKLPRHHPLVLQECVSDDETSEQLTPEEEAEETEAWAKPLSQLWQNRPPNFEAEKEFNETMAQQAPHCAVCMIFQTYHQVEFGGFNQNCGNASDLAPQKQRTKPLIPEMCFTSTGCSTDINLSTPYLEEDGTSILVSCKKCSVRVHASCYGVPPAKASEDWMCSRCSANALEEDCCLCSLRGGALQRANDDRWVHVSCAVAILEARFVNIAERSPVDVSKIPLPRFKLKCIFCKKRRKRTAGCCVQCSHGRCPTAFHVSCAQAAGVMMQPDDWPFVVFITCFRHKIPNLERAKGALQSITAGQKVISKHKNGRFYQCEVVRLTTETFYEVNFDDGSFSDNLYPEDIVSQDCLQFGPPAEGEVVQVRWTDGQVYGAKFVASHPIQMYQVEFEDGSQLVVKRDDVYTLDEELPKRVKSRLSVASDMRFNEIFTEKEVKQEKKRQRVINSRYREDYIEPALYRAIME
Structure (SMILES),Potency,"activity change, negative = inhibition"
CCOC(=O)c1cc(C)n(Cc2ccc(OCC)c(OC)c2)c1C,"inconclusive: 39.8 µM [inhibitor, partial curve]",–
O=C(O)c1cccc(NC(=S)N/N=C/c2ccccc2OCc2cccc(Br)c2)c1,active: 50.1 µM,–
CCOc1ccc(OCCn2c(=S)[nH]c3ccccc32)cc1,"inconclusive: 79.4 µM [inhibitor, partial curve]",–
Cc1ccc(NC(=O)CSC2=C(C#N)C(c3ccco3)C3=C(CC(C)(C)CC3=O)N2)cc1 (stereo not given),"inconclusive: 28.2 µM [inhibitor, full curve, poor fit]",–
O=C(O)CCn1c(C(=O)O)cc2sccc21,"inconclusive: 79.4 µM [inhibitor, partial curve]",–
CCOC(=O)N1CCC(N2CCCC(C(=O)c3ccc4cc(OC)ccc4c3)C2)CC1 (stereo not given),"inconclusive: 15.8 µM [inhibitor, full curve, poor fit]",–
CC(C)CN1C=C2C(=O)C(C)(OC(=O)CCc3ccccc3)C(=O)C=C2C=C1c1ccc(C#N)cc1 (stereo not given),"inconclusive: 56.2 µM [inhibitor, partial curve]",–
COc1ccc(C(=O)O)cc1S(=O)(=O)NCc1ccccn1,"inconclusive: 20 µM [inhibitor, partial curve]",–
CCn1c(-c2ccc([N+](=O)[O-])cc2)n[nH]c1=S,active: 3.55 µM,–
COc1ccc(/C=C2\SC(=S)N(CC(=O)OCC(=O)Nc3ccc(C)cc3Cl)C2=O)cc1,"inconclusive: 10 µM [inhibitor, full curve, poor fit]",–
Cc1ccccc1N1C(=O)C(Cl)=C(N2CCN(c3ccccc3)CC2)C1=O,"inconclusive: 112 µM [inhibitor, partial curve, poor fit]",–
N#Cc1ccccc1NC(=O)C(=O)NCC(c1cccnc1)N1CCc2ccccc21 (stereo not given),–,inactive: 2.3%
O=C(Nc1cc(F)ccc1F)c1cnn2c(C(F)F)cc(-c3ccccc3)nc12,–,inactive: -15.1%
CCOC(=O)N1CCN(S(=O)(=O)c2ccc(C(=O)Nc3nnc(CSC)o3)cc2)CC1,active: 44.7 µM,–
COc1ccc(CCN(C)C(=O)C2CCN(Cc3cccc(OC)c3OC)CC2)cc1OC,active: 3.16 µM,–
Cc1cccc(CN2CCc3c([nH]c4ccccc34)C2C(C)(C)C)n1 (stereo not given),"inconclusive: 63.1 µM [inhibitor, partial curve, poor fit]",–
COc1cccc(C(=O)C[n+]2ccccc2/C=N/O)c1,–,inactive: -2.08%
O=C(NCCc1c[nH]c2ccccc12)c1cc(Cl)c2c(c1)OCO2,"inconclusive: 63.1 µM [inhibitor, partial curve, poor fit]",–
COc1ccc(C23CC4CC(CC(C4)C2)C3)cc1C(=O)NCCN(C)C,"inconclusive: 89.1 µM [inhibitor, single point]",–
S=C(Nc1cccc(Cl)c1)N(CCCN1CCCC1)Cc1cccn1Cc1ccc(Cl)cc1,active: 31.6 µM,–
Cc1cc(CNC(=O)[C@H]2C[C@@H]2[C@H](NP(=O)(c2ccccc2)c2ccccc2)c2ccccc2)nn1C,"inconclusive: 25.1 µM [inhibitor, full curve, poor fit]",–
CCOc1ccc(S(=O)(=O)NC2CCCCCC2)cc1,–,inactive: -4.46%
Oc1ccc(C[C@H]2CNC(=S)N2CC2CCCN2C[C@H](Cc2ccccc2)N2C[C@H](Cc3ccc(O)cc3)N(CC3CCCCCC3)C2=S)cc1 (stereo not given in full),"inconclusive: 3.98 µM [inhibitor, full curve, poor fit]",–
CCc1ccc(C(=O)Nc2cccc(-c3nc4cc(C(C)C)ccc4o3)c2)cc1,–,inactive: 2.99%

Structure (SMILES),Potency,"activity change, negative = inhibition"
CC(=O)c1cccc(NC(=O)Nc2cc3c(cc2N2CCCC2)n(C)c(=O)n3C)c1,"inconclusive: 56.2 µM [inhibitor, partial curve]",–
CC(C)c1ccc(C2C3=C(CC(C)(C)CC3=O)NC3=C2C(=O)c2ccccc23)cc1 (stereo not given),"inconclusive: 14.1 µM [inhibitor, full curve]",–
NNc1nc(-c2ccccc2Cl)c2cc(Br)ccc2n1,"inconclusive: 2.51 µM [inhibitor, full curve, poor fit]",–
COc1cc(NC(=O)COC(=O)CCc2nc3ccccc3c(=O)[nH]2)cc(OC)c1,–,inactive: -7.53%
COc1ccc(C2(c3ccc(OC)cc3)NC(=O)N(CC(=O)Nc3ccc(OC)c(OC)c3)C2=O)cc1,"inconclusive: 28.2 µM [inhibitor, full curve, poor fit]",–
CCOC(=O)/C(=N\Nc1ccccc1[N+](=O)[O-])c1csc(N)n1,"inconclusive: 50.1 µM [inhibitor, partial curve]",–
CCCCn1c(N)c(N(CCC(C)C)C(=O)C2=NN(c3cc(C)ccc3C)C(=O)CC2)c(=O)[nH]c1=O,–,inactive: -0.69%
CN(C)c1ccc(CNC2C3CC4CC(C3)CC2C4)cc1 (stereo not given),"inconclusive: 44.7 µM [inhibitor, partial curve]",–
COc1ccc(/C=N\NC(=S)SCN2C(=O)C3CCC(C)(C2=O)C3(C)C)cc1 (stereo not given),"inconclusive: 3.55 µM [inhibitor, full curve, poor fit]",–
COc1ccc(CNC(=O)c2ccc3c(c2)CCN3S(=O)(=O)c2ccccc2)cc1,–,inactive: -5.03%
COc1ccc(NCc2nnc(SCCN3CCCCC3)n2-c2ccc(C)cc2)cc1,"inconclusive: 14.1 µM [inhibitor, full curve, poor fit]",–
COc1cccc(Nc2nc(CN3CCOCC3)nc3sc4c(c23)CCCC4)c1,"inconclusive: 44.7 µM [inhibitor, single point]",–
OCCC1CN(Cc2cccn2-c2ncccn2)CCN1C1CCCC1 (stereo not given),–,inactive: -20.1%
CCSc1nc(C)c(C(C)=O)cc1C#N,–,inactive: 6.77%
CCCOCc1cc(CN2CCN(c3ccccc3OC)CC2)c(O)c2ncccc12,active: 20 µM,–
Cc1ccc(NC(=S)N(C)Cc2cn(C)c3ccccc23)cc1,"inconclusive: 56.2 µM [inhibitor, partial curve]",–
CCN(CC(=O)NCCC1=CCCCC1)S(=O)(=O)c1ccccc1,–,inactive: -15.4% [at 11.4 µM]
Cc1cccc(NCc2nc(SCC(=O)Nc3ccccc3)n[nH]2)c1,–,inactive: -19%
N#CC(C#N)=C1SC(=Nc2ccccc2)C(=Nc2ccccc2)N1c1ccccc1,"inconclusive: 3.16 µM [inhibitor, full curve]",–
Nn1c(SC/C=C/c2ccccc2)nnc1-c1ccccn1,active: 20 µM,–
Cc1c(NC(=O)C(=O)/C=C(\O)c2ccc(Cl)cc2)c(=O)n(-c2ccccc2)n1C,active: 12.6 µM,–
Cc1cccc(C)c1NC(=O)CN(C)S(=O)(=O)c1ccc2[nH]c3c(c2c1)CCCC3,"inconclusive: 39.8 µM [inhibitor, partial curve]",–
COc1ccc(OC)c(Nc2nc(-c3sc(N)nc3C)cs2)c1,active: 50.1 µM,–
O=C(COc1ccc(Nc2ccccc2)cc1)OCC(=O)N1CCCCC1,"inconclusive: 25.1 µM [inhibitor, full curve, poor fit]",–

Structure (SMILES),Potency,"activity change, negative = inhibition"
Cc1ccc(/C=C2\C(=N)N3N=C(CC(=O)N4CCOCC4)SC3=NC2=O)o1,active: 56.2 µM,–
COc1ccc(N2CCN(C(=O)CN3C(=O)NC(C)(c4ccc5ccccc5c4)C3=O)CC2)cc1 (stereo not given),"inconclusive: 44.7 µM [inhibitor, partial curve]",–
Cc1cc(-c2ccccc2)nc(N/N=C/c2ccco2)n1,"inconclusive: 56.2 µM [inhibitor, partial curve]",–
COc1cccc(CNCc2ccco2)c1O,active: 17.8 µM,–
COc1ccc2c(c1OC)C(=O)N(c1ccc(OCc3ccccc3)cc1)C2=O,–,inactive: -10.5%
CN(C(=O)CSc1nc2ccccc2[nH]1)c1ccc(F)cc1,–,inactive: 6.91%
COc1cccc(/C=N/NC(=O)Cn2cnc3c2c(=O)n(C)c(=O)n3C)c1OC,"inconclusive: 89.1 µM [inhibitor, single point]",–
Cc1cc(C)c2c(=O)n(CC(=O)Nc3cccc(F)c3)sc2n1,active: 1.12 µM,–
CC1CCCC(C)N1C(=O)CN1C(=O)C(C)(C)Oc2ccc(C(=O)NC3CCCCC3)cc21 (stereo not given),–,inactive: -12%
COc1ccccc1NC(=O)CSC(N)=O,"inconclusive: 3.55 µM [inhibitor, single point]",–
O=C1Cc2cc(S(=O)(=O)N3CCN(c4ccc(O)cc4)CC3)ccc2N1,active: 126 µM,–
O=S(=O)(c1ccccc1)c1cnc(-c2cccnc2)nc1-c1ccc(Cl)cc1Cl,"inconclusive: 79.4 µM [inhibitor, partial curve]",–
CCOc1ccc(/C(O)=C2/C(=O)C(=O)N(CCOCCO)C2c2ccc(F)cc2)cc1 (stereo not given),"inconclusive: 89.1 µM [inhibitor, single point]",–
Cc1oc(-c2ccccc2)cc1C(=O)Nc1cccc(/C=C/C(=O)O)c1,"inconclusive: 50.1 µM [inhibitor, partial curve, poor fit]",–
CCOc1ccc(C(=O)Nc2ccc3nc4c(c(Nc5ccccc5OC)c3c2)CCCC4)cc1,"inconclusive: 10 µM [inhibitor, full curve]",–
COc1ccc(NC(=O)CN(C)CC(=O)Nc2cccc(C(C)=O)c2)cc1,active: 10 µM,–
O=C(CCNS(=O)(=O)c1ccc2c(c1)CCN2C(=O)C1CC1)N1CCN(c2cccc(C(F)(F)F)c2)CC1,–,inactive: -16.5%
COC(=O)c1ccccc1NC(=O)CSc1nc(C)cc(C)n1,–,inactive: -0.699%
Cc1nn(CC(=O)N2CCN(C34CC5CC(CC(C5)C3)C4)CC2)c(C)c1[N+](=O)[O-],–,inactive: 4.91%
Cc1cc(Nc2ccc(O)cc2)ccc1N,"inconclusive: 8.91 µM [inhibitor, partial curve]",–
COc1cc(NC(=O)Cn2nnnc2-c2ccccc2F)cc(OC)c1OC,–,inactive: -10.4%
CCC(=O)NC(=S)NNC(=O)COc1ccc(Br)cc1,–,inactive: -11.1%
